# Source: article PMC7822688, “W196 and the β-Hairpin Motif Modulate the Redox Switch of Conformation and the Biomolecular Interaction Network of the Apoptosis-Inducing Factor” (Oxidative Medicine and Cellular Longevity, 2021)
# Key:
# [1] = target: WT human apoptosis-inducing factor hAIF_(Δ1-101) (human) (UniProt O95831); assay: SEC; HiPrep 26/60 Sephacryl S-200 HR, 50 mM phosphate, 150 mM NaCl, pH 7.4, 0.5 mL/min, 6°C; with a 10-fold excess of NADH (CTC state); monomer-dimer
# [2] = target: WT human apoptosis-inducing factor hAIF_(Δ1-101) (human) (UniProt O95831); assay: cross-linking; 4 μM hAIF_(∆1-101) variant, 100-fold excess of BS^3, 10 mM phosphate, pH 7.4, room temperature, 12% SDS-PAGE; with an excess of NADH (CTC state)
substance,measurement,setting,value
"WT human apoptosis-inducing factor hAIF_(Δ[…]) (a stretch of the chain, no sequence given) (domain or fragment; other documents disagree on this pair)",stoichiometry N,[1],2
same,stoichiometry N,[2],2
